Like-named read-outs stand apart in the source and are kept apart here.
Experiments:
[1] = tested on: cyclophilin; assay: In vitro PPIase assay
[2] = biological target: Pin1 S71E mutant (Homo sapiens, UniProt Q13526, S71E); assay: Binding to phosphorylation-mimicking Pin1 S71E mutant
Description: As observed in FIGS. 4B and 4C, 13cRA and its pairing compound ATRA include a carboxylic acid and a hydrophobic six-membered aromatic ring.
(§1) The levels of S71 phosphorylation in different cell lines were tightly correlated with ATRA's sensitivity. […] It has been previously shown that phosphorylation on S71 forms salt bridges with K63 and R69, which are the same two residues that coordinated for the binding to the carboxylic acid group of ATRA (FIG. 6H). Thus S71 phosphorylation by DAPK1 may regulate ATRA's sensitivity of cancer cells.

[3] = tested on: MDA-MB-231 cells stably expressing Flag-Pin1; assay: Xenograft of MDA-MB-231 cells stably expressing Flag-Pin1; parameters: species or system nude mice; conditions: mouse, in vivo
Description: (D, E) ATRA inhibited tumor growth of MDA-MB-231 cells in mice, even after Pin1 over-expression. MDA-MB-231 cells stably expressing Flag-Pin1 or control vector were inoculated into female nude mice followed by ATRA treatment. Tumors were collected 7 weeks post-treatment (D). Quantitative curves of tumor volume were plotted after calculation (E) (n=3).
To test whether the anti-tumor activity of ATRA against breast cancer is mediated by Pin1, it is stably expressed Flag-tagged Pin1 in MDA-MB-231 cells, followed by injection into nude mice. […] Thus anti-tumor activity of ATRA is mediated by ablating Pin1.

[4] = tested on: APL cells isolated from hCG-PML-RARα transgenic mice
[5] = tested on: NIH3T3 cells; assay: Centrosome amplification induced by Pin1 overexpression; format: cell-based; conditions: about 60% cells with multiple centrosomes without drug
Description: (§2) FIG. 6 illustrates study results 600 in which ATRA may have anticancer activity in other cancer types. Breast cancer was used as model due to the substantial oncogenic role of Pin1 in vitro and in vivo. The first step was to test whether ATRA may reverse the oncogenic phenotypes induced by Pin1 overexpression, including induction of centrosome amplification, activation of the cyclin D1 promoter, and enhancement of foci formation.

[6] = tested on: Pin1 and PML-RARα in the bone marrow; assay: Pin1 and PML immunostaining of bone marrow of APL patients; format: in vivo, human APL patients
Description: Bone marrow samples from APL patients before or after 3 or 10 days of ATRA treatment were immunostained with anti-Pin1 and anti-PML antibodies. […] Relative levels of Pin1 (P) in the nucleus and PML-RARα in the nuclear plasma outside of the PML nuclear body (Q) were semi-quantified (n=3).
A significant question is whether ATRA treatment leads to degradation of Pin1 and PML-RARα in APL patients. To address this question, Pin1 and PML-RARα protein levels and their localization in the bone marrow of APL patients using double immunostaining with antibodies against Pin1 and PML before or after the treatment with ATRA for 3 or 10 days, were detected.

[7] = tested on: human breast cell lines; assay: Anti-proliferative effect on human normal and breast cancer cell lines; format: cell-based
Experimental: (F, G) Anti-proliferative effects of ATRA (F) and their correlation with Pin1 S71 phosphorylation (G) in various human normal and breast cancer cell lines.
To support the inhibitory effects of ATRA on human breast cancer cell growth, ATRA was tested against 9 different human breast cancer cell lines, ranging from immortalized normal cells to malignant ones. […] To address ATRA sensitivity among breast cell lines, Pin1 protein levels and post-translational modifications were analyzed. As compared with normal MCF10 and HMLE cells, Pin1 was over-expressed and its acetylation was reduced in all breast cancer cells (FIG. 6G).
as §1

[8] = biological target: Pin1 (Homo sapiens, UniProt Q13526); assay: In vitro PPIase assay; conditions: dose-dependent
Chain of Pin1 (Q13526 whole entry): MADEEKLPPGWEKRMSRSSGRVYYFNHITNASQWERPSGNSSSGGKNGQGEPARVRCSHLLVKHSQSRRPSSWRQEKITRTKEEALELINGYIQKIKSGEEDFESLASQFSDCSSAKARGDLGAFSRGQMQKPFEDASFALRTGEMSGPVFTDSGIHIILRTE

[9] = tested on: MRL/lpr lupus prone mice; assay: MRL/lpr lupus prone mice; format: in vivo
Experimental: To test the effects of inhibiting Pin1 on lupus-related phenotypes in a mouse models, ATRA was used to treat six pairs of MRL/lpr mice at 8 weeks with the 5 mg ATRA or placebo for 8 weeks to examine whether ATRA would prevent the development of lupus-related phenotypes in this mouse model, which usually occur at 12 weeks. […] A pair of 14 week-old ATRA-treated and placebo-treated mice were sacrificed.

[10] = tested on: Q33K or E100D Pin1 mutant in MDA-MB-231 cells; assay: MDA-MB-231 cells stably expressing WT, Q33K or E100D Flag-Pin1 treated in vitro; format: cell-based, human
Description: It was examined whether ATRA is suitable for treating tumors driven by cancer-derived monomeric Pin1 mutants given that it induces degradation of monomeric Pin1. It is stably expressed WT, Q33K or E100D Flag-Pin1 in MDA-MB-231 cells, and then treated them with ATRA. […] Collectively, ATRA has potent anti-tumor activity against breast cancer driven by WT Pin1 or its cancer-derived monomeric mutants via ablating Pin1.

[11] = cited from earlier work
[12] = tested on: PML-RARα and Pin1 in NB4 cells; assay: PML-RARα and Pin1 protein levels in NB4 cells; format: cell-based, human
[13] = tested on: NB4 cells; assay: Cell growth of NB4 cells; format: cell-based, human; conditions: 1.5 μM ATRA compared with 10 μM ATRA
Description: (K) Potentiated effects of ATRA with SIRT1 inhibitors, NAM or Splito, on cell growth of NB4.
Next, in a consideration to test the role of activated Pin1 monomer in APL, the anti-proliferative effect of ATRA in the presence of the SIRT1 inhibitors, NAM or Splito, to deplete the monomeric Pin1 reservoir was examined.

[14] = biological target: FKBP12 (Homo sapiens, UniProt P62942); assay: In vitro PPIase assay
Chain of FKBP12 (P62942 whole entry, species assumed): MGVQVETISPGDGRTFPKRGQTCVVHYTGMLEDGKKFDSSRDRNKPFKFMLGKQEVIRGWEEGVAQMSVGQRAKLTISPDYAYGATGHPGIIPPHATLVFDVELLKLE

[15] = tested on: MDA-MB-231 cells; assay: Foci formation enhanced by Pin1; format: cell-based, human; conditions: dose-dependent
Description: as §2

Chain of Pin1 S71E mutant (Q13526 whole entry S71E): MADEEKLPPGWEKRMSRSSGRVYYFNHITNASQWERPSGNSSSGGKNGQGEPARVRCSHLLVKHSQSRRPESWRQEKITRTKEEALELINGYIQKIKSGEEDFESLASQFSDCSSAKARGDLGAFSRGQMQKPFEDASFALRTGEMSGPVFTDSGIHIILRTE

Q: Which inhibition of cyclophilin [1] does the source give for `CC1=C(/C=C/C(C)=C/C=C/C(C)=C/C(=O)O)C(C)(C)CCC1` [ATRA, all-trans-retinoic acid] here?
A: The inhibition of cyclophilin was “inhibited neither”.

Q: And the “binding to Pin1 S71E mutant” value [2]?
A: The value was “prevented Pin1 from binding ATRA”.

Q: What about the “Pin1 and cyclin D1 in xenograft tumors” value [3] of the same compound?
A: Its value is “dose-dependently reduced both endogenous and exogenous Pin1 and its target cyclin D1”.

Q: What about the “inhibition of tumor growth increased by Flag-Pin1 overexpression” value [3] of the same compound?
A: Its value is “dose-dependently and effectively inhibited”.

Q: What about the “PML-RARα in the bone marrow” value ([4]; after 20 days) of the same compound?
A: The value was “dramatically reduced”.

Q: And the “Pin1 levels in the bone marrow” value ([4]; after 20 days)?
A: Its value is “reduced Pin1 levels”.

Q: And the spleen weights ([4]; versus enlarged spleens in placebo group)?
A: The spleen weights was “remained nearly at basal levels”.

Q: What about the “inhibition of Pin1 overexpression-induced multiple centrosomes” value [5] of the same compound?
A: The value was “dose-dependently and completely inhibited”.

Q: What about the “PML-RARα level remaining (nuclei excluding PML bodies)” value ([6]; after 3 day of treatment) of the same compound?
A: The value was “about 40%”.

Q: What about the Pin1 level remaining ([6]; after 3 day of treatment, over 100 APL cells quantified) of the same compound?
A: The Pin1 level remaining was “about 40%”.

Q: And the PML-RARα level ([6]; after 10 days of treatment)?
A: Its PML-RARα level is “little immunostaining signal outside of PML bodies”.

Q: And the Pin1 level remaining ([6]; after 10 days of treatment)?
A: The Pin1 level remaining was under 10%.

Q: And the “sensitivity class of cells” value ([7]; HMLE, MCF10A, AU565 and HCC1937 (S71 phosphorylated))?
A: Its value is “ATRA-resistant”.

Q: And the “sensitivity class of cells” value ([7]; T47D and SKBR3 (low or no S71 phosphorylation))?
A: The value was “ATRA-responsive”.

Q: And the “susceptibility of cells to ATRA” value ([7]; immortalized non-transformed MCF10A and HMLE cells)?
A: Its value is “highly resistant”.

Q: What about the “susceptibility of cells to ATRA” value ([7]; malignant breast cancer cells) of the same compound?
A: Its value is “different drug susceptibility”.

Q: And the “inhibition of Pin1 PPIase activity” value [8]?
A: The value was “completely inhibited”.

Q: And the “visual lupus-related phenotypes (fur loss, skin inflammation, lymphoid hyperplasia)” value ([9]; 5 mg ATRA for 8 weeks from 8 weeks of age)?
A: Its value is “drastically suppressed visual lupus-related phenotypes in all six treated mice”.

Q: And the “size of spleen and lymph node” value ([9]; 14 week-old mouse, placebo 2-4 fold heavier)?
A: Its value is “normal size”.

Q: What about the “glomerular deposition of IgG, C3, and CD68” value ([9]; mouse, in vivo) of the same compound?
A: The value was “potently inhibited”.

Q: What about the hyperkeratinosis ([9]; mouse, in vivo) of the same compound?
A: The hyperkeratinosis was “potently inhibited”.

Q: And the “inhibition of Q33K or E100D Pin1 mutant-enhanced foci formation in vitro” value [10]?
A: The value was “dose-dependently and effectively inhibited”.

Q: And the “degradation of monomeric Pin1 mutants” value ([10]; Q33K or E100D Flag-Pin1)?
A: Its value is “effectively induced degradation of both monomeric Pin1 mutants in a dose-dependent manner”.

Q: And the half-life ([11]; humans and mammals, efficient first pass metabolism)?
A: Its half-life is “approximately 45 minutes”.

Q: What about the half-life ([11]; in humans) of the same compound?
A: The half-life was “less than 1 h”.

Q: What about the PML-RARα degradation [12] of the same compound?
A: The PML-RARα degradation was “induced PML-RARα degradation in a dose-dependent manner”.

Q: What about the Pin1 degradation [12] of the same compound?
A: The Pin1 degradation was “dose-dependently induced degradation”.

Q: What about the Pin1 reduction ([12]; after 4 days of treatment) of the same compound?
A: The Pin1 reduction was “dramatic Pin1 reduction”.

Q: And the growth inhibition [13]?
A: The growth inhibition was “less growth inhibition”.

Q: And the “inhibition of FKBP12” value [14]?
A: Its value is “inhibited neither”.

Q: What about the “inhibition of Pin1-enhanced foci formation” value [15] of the same compound?
A: The value was “fully inhibited”.

Reference: patent publication US9968579B2, “ATRA for modulating Pin1 activity and stability” (Beth Israel Deaconess Medical Center, Inc., priority 2014, dated 2018)
